Test results as given in PubChem BioAssay AID1159614 (National Center for Advancing Translational Sciences (NCATS), 2016).
Among all 45,000 compounds or so, about 65 (0.1%) were called active. The call rests on the fitted dose curve; in most records, active means well fitted activation curve with a large enough effect; inconclusive means small, poorly fitted or top-dose-only effect; inactive means no such curve, though single readings can be large or run the other way. This is one part of the list.

molecular target: Galactocerebrosidase (Homo sapiens) (UniProt P54803); test: A Novel Cell-Based Assay to Identify Small Molecules for B -Galactocerebrosidase; conditions: 145M-Twi-hGALC-G270D cells (Twitcher mouse brain line with human GALC G270D), HMU-beta-Gal fluorescence, 48 h; series mostly up to 57.5 µM; activation: at the top concentration; further: 0% is about no effect; nearly all actives have a fitted effect of over 65% in size
Sequence of UniProt P54803 (P54803 whole entry, looked up): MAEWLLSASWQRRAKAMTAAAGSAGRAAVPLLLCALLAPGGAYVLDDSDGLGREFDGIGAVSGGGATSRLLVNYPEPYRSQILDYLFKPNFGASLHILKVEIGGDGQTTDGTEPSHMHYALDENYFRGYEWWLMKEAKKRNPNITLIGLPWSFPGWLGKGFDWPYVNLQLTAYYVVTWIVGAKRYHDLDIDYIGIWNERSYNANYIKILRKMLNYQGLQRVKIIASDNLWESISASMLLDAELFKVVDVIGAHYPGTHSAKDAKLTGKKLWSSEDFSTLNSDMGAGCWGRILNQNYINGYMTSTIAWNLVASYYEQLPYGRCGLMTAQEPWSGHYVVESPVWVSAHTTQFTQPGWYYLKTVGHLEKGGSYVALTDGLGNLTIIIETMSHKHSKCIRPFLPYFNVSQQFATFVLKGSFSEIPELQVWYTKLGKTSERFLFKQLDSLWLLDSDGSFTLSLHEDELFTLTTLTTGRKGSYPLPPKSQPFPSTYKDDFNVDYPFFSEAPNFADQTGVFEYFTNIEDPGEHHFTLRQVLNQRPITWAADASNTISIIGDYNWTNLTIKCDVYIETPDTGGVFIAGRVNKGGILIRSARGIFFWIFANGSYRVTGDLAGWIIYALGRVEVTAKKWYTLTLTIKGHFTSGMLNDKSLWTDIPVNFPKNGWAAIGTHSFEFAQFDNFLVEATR
How it was run: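 Fluorescence readout: HMU-β-gal cleavage by mutant GALC (0.1 mM final, citrate/phosphate pH 5.2 with 1 mg/mL taurocholate), stopped with carbonate/bicarbonate plus Triton X-100. Cells: murine Twitcher 145M-Twi expressing human G270D GALC; qHTS for activators.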

activation, inactive:
Cc1ccc(Cl)cc1NC(=O)C1CCCN(S(=O)(=O)c2cccc3cccnc23)C1 (stereo unspecified) -13.8%, COc1ccc(N2C(=O)CS(=O)(=O)C23C(=O)N(Cc2ccc(F)cc2)c2ccc(C)cc23)cc1 (stereo unspecified) -28.5%, COc1ccccc1CNC(=O)CSc1nc2nc(C)c(Cc3ccccc3Cl)c(C)n2n1 -0.66%, Cc1ccccc1NC(=O)c1c(NC(=O)c2ccco2)sc2c1CCC(C(C)(C)C)C2 (stereo unspecified) -10.9%, CCC(=O)N1CCc2cc(Br)cc(S(=O)(=O)N3CCCC(C(=O)Nc4cccc(C)c4C)C3)c21 (stereo unspecified) -4.16%, Cc1ccccc1CNC(=O)c1cccc(NC(=O)N2CCSc3ncccc32)c1 -2.95%, CCOC(=O)c1c(S(=O)(=O)N2CCCC(C(=O)Nc3cccc(C#N)c3)C2)c(C)n(C)c1C (stereo unspecified) -19.6%, CC(Oc1ccccc1)C(=O)Nc1ccc(OCc2cc(=O)n3ccsc3n2)cc1 (stereo unspecified) -15.8%, Cn1c(=O)c2c(SCC(=O)NCc3ccco3)nc(-c3cccc(F)c3)nc2n(C)c1=O -12.3%, CCOc1ccc(CC(=O)Nc2c(C(=O)Nc3ccc(OC)cc3OC)oc3ccccc23)cc1 -9.35%, Cc1ccc(S(=O)(=O)c2cn(CC(=O)Nc3ccccc3C)c3cc4c(cc3c2=O)OCO4)cc1 -10.8%, Cc1cc2c(cc1S(=O)(=O)N(C)CC(=O)Nc1ccc(C#N)cc1)OCC(=O)N2 -9.37%, NS(=O)(=O)c1ccc(CCNC(=O)c2ccc3nc(CCc4ccccc4)oc3c2)cc1 -18.6%, CCOC(=O)c1c(S(=O)(=O)NCC(=O)Nc2ccc(C)c(N(C)C)c2)c(C)n(C)c1C -9.31%, C[C@H](N)[C@H](O)c1cccc(O)c1 -14.5%, COc1ccc(-c2nc3cc(C)ccn3c2NC(=O)c2ccc(F)cc2)cc1 -11.2%, CCOc1ccc(CCNC(=O)c2nc(-c3cccc(F)c3)n3c2CCCCC3)cc1OCC -21.3%, CCOc1ccc(CNC(=O)c2cnc3sc(N4CCOCC4)nn3c2=O)cc1OC 0.683%, CC(C)c1nc2ccc(C(=O)NCCCN3CCN(c4cccc(Cl)c4)CC3)cc2o1 -8.72%, Cc1cccc(N2CCN(C(=O)CN3C(=O)COc4ccc(S(=O)(=O)N5CCC(C)CC5)cc43)CC2C)c1 (stereo unspecified) -7.66%, CCOC(=O)N1CCN(Cc2nc3cc([N+](=O)[O-])ccc3n2C(C)C)CC1 -16.6%, Cc1ccc2scc(N3CCC(C)CC3)c(=O)c2c1 -8.38%, CCOC(=O)C1CCC(CN(Cc2ccc(Cl)cc2)S(=O)(=O)c2cc(Cl)cc(Cl)c2)CC1 (stereo unspecified) -8.66%, Cc1cccc(N2CCN(C(=O)C3CCCN(S(=O)(=O)c4ccc(Br)s4)C3)CC2)c1C (stereo unspecified) -22.8%, COc1cccc(NS(=O)(=O)c2ccc3c(c2)[C@H]2C=CC[C@H]2[C@@H](c2ccccc2Cl)N3)c1 -9.72%, CCOc1ccccc1NC(=O)CCn1cnnn1 -13.9%, Cc1[nH]c2ccccc2c1C(c1ccccc1)c1ccc(Cl)s1 (stereo unspecified) -16.7%, CN=C(NC#N)Nc1ccc(C2=NNC(=O)CC2C)cc1 (stereo unspecified) -6.04%, COc1cccc(CNC(=O)Cc2ccc(NC(=O)N3CCSc4ncccc43)cc2)c1OC -9.02%, Cc1cccn2c(Nc3ccccc3)c(-c3cccs3)nc12 -25.8%, COc1ccccc1NC(=O)CSc1nc2nccnc2c(=O)n1CCc1c[nH]c2ccccc12 2.2%, CCN(CC)CCNC(=O)CSc1nc2nc(C)c(Cc3ccccc3)c(C)n2n1 -8.99%, O=C(CCC1CCCC1)N1CCc2c([nH]c3ccccc23)C1c1ccc(Cl)cc1 (stereo unspecified) -20.4%, CCc1cccc(C)c1NS(=O)(=O)c1cc(-c2cc(C)no2)ccc1C -16.8%, Cc1ccc(-n2nnc(-c3nsc(NC(=O)c4ccccc4)n3)c2C)cc1 -10.3%, Cc1ccc(-n2nc3ccc(NC(=O)c4oc5ccc(C)cc5c4C)cc3n2)cc1 -7.74%, CCOc1ccc(OCC(=O)NCCS(=O)(=O)N2CCN(c3ccc(F)cc3)CC2)cc1 5.26%, Cc1cc(C(F)F)n2nc(C(=O)Nc3cc(Cl)ccc3C)nc2n1 -11.2%, CCOC(=O)C1CCCN(S(=O)(=O)c2ccc(N3CCCCS3(=O)=O)cc2)C1 (stereo unspecified) -7.85%, CC1CCc2noc(NC(=O)c3ccccc3[N+](=O)[O-])c2C1 (stereo unspecified) -4.95%, CCCOc1ccccc1C(=O)N1CCCCC1CCN1CCOCC1 (stereo unspecified) -8.5%, O=C(Nc1ccccc1F)c1nc(SCc2ccc(F)cc2)ncc1Cl -7.17%, CCN(C(=O)Cn1ncc2c(=O)oc3ccc(C)cc3c21)c1cc(OC)ccc1OC -10.6%, O=C(Nc1ccc2nc(SCCOc3ccccc3)sc2c1)c1cccs1 -14.5%, COc1ccccc1CNC(=O)C1CCN(S(=O)(=O)c2c(C)noc2/C=C/c2c(C)cc(C)cc2C)CC1 -16%, O=C(Nc1ccc(C(F)(F)F)cc1)c1cc(S(=O)(=O)NC2CCCCC2)ccc1F -13.4%, CCCN1C(=O)C(O)(CC(=O)c2ccc(OC)c(OC)c2)c2ccccc21 (stereo unspecified) -12.7%, CN1CCN(C(=O)c2ccc3c(c2)N(Cc2cccc(Cl)c2)C(=O)c2ccccc2S3(=O)=O)CC1 -12.9%, CCc1ccc(NC(=O)c2ccc(F)c(S(=O)(=O)NC3CCCCCC3)c2)cc1 -5.49%, COc1cccc(CNC(=O)CSc2ncc3c(n2)-c2cc(Cl)ccc2N(C)S3(=O)=O)c1 -20.3%, Cc1c(Cl)cccc1NC(=O)CN1C(=O)COc2ccc(S(=O)(=O)N3CCCCCC3)cc21 -5.29%, CCOc1ccccc1NC(=O)c1sc2nc(C)cc(C)c2c1N -20.5%, Cc1coc2c(C)c3oc(=O)c(CC(=O)NCc4ccccc4)c(C)c3cc12 -5.1%, CCOC(=O)c1cnc2c(C)cc(C)cc2c1NCCc1ccc(OC)c(OC)c1 -9.97%, Cc1cccc(C)c1NC(=O)c1nc(S(C)(=O)=O)ncc1N(Cc1ccc(F)cc1)Cc1ccco1 -2.13%, COc1cccc(CNC(=O)CN2C(=O)CSc3c2c(C)nn3-c2ccccc2)c1OC -12.8%, COc1ccc(CNC(=O)Cn2c(=O)oc3cc(S(=O)(=O)N4CCC(C)CC4)ccc32)cc1 -40.4%, Cc1ccc(Cl)cc1-n1c(=O)c2sc3ccccc3c2n(CC(=O)NC2CCCCC2)c1=O -8.74%, Cc1ccc(C)n1-c1c(C(=O)NCC(C)c2ccccc2)sc2ncccc12 (stereo unspecified) -10.3%, O=c1c2sc3ccccc3c2n(Cc2ccccc2Cl)c(=O)n1Cc1ccccc1 -6.68%, COc1ccc(C(=O)N(Cc2ccc(N(C)C)cc2)Cc2ccco2)cc1Cl -18.2%
